The supplement of paper PMC7826260
This is one part of the list. Viral Rep nickase domains cut single-stranded DNA in vitro at 3 µM enzyme and 37 °C for 1 h; the strands have 90 letters, of which the middle is given. Numbers give uncut DNA relative to the enzyme-free pool, as log2; strong cutting gives strongly negative numbers. There is no active / inactive call. Counts are relative to all reads; uncut strands gain when others are lost, and binding without cutting may add a little.

Each sequence was assayed on T1, Rep nickase domain of tomato golden mosaic virus (assay: uncleaved DNA left, log2 of reads against the no-enzyme library (log2 ratio); higher = less cleavage (more negative = more Rep cleavage of the k-mer); sequences stand for … in CTCGTCCG…ACCGGAGA).
T1 sequence (Rep 1-124, printed without the tag): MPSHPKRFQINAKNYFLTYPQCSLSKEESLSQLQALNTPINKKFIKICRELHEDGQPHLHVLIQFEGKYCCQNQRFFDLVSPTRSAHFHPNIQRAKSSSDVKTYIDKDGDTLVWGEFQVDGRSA
Method: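 A pool of 90-nt single-stranded DNAs with seven random bases just before the constant AC of the nick site (name = the seven bases) was cut by 3 µM recombinant His6-SUMO-tagged Rep nickase domain (300 nM DNA, 50 mM HEPES pH 8.0, 50 mM NaCl, 1 mM MnCl2, 1 h, 37 °C, three replicates). Uncut DNA was amplified and sequenced.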
In the case of TCGACAA, the “uncleaved DNA left (log2)” value is reported as 0.00527.
CCATTGC was tested, and the “uncleaved DNA left (log2)” value was -0.192.
GGCGATA was tested, and the “uncleaved DNA left (log2)” value was 0.19.
In the case of ATCACAT, the “uncleaved DNA left (log2)” value is reported as 0.00262.
ACCAGTT was tested, and the “uncleaved DNA left (log2)” value was -0.04.
With TGAACTA the “uncleaved DNA left (log2)” value was -0.0508.
For AGTGGGC, the “uncleaved DNA left (log2)” value was 0.0969.
For AAAGGAC, the “uncleaved DNA left (log2)” value was 0.0978.
In the case of TTCGCTG, the “uncleaved DNA left (log2)” value is reported as -0.00228.
TCGCTGG was tested, and the “uncleaved DNA left (log2)” value was 0.0324.
TAATTGA was tested, and the “uncleaved DNA left (log2)” value was -0.34.
For TGGCATC, the “uncleaved DNA left (log2)” value was -0.0781.
GGCCCGT was tested, and the “uncleaved DNA left (log2)” value was -0.00516.
In the case of ACGCGAT, the “uncleaved DNA left (log2)” value is reported as -0.137.
In the case of TACGTGA, the “uncleaved DNA left (log2)” value is reported as -0.0425.
With AAGTGGT the “uncleaved DNA left (log2)” value was 0.084.
For CGATAGC, the “uncleaved DNA left (log2)” value was -0.0993.
TATGAGC was tested, and the “uncleaved DNA left (log2)” value was -0.0131.
For GCTCGAG, the “uncleaved DNA left (log2)” value was -0.0214.
With GTTTATC the “uncleaved DNA left (log2)” value was 0.0199.
For TGGGGGT, the “uncleaved DNA left (log2)” value was 0.0158.
With ATCGAAT the “uncleaved DNA left (log2)” value was 0.0608.
With TTAAACT the “uncleaved DNA left (log2)” value was -0.0588.
TCACCAC was tested, and the “uncleaved DNA left (log2)” value was 0.0161.
With ACAAGCG the “uncleaved DNA left (log2)” value was -0.0767.
TGGCCTC was tested, and the “uncleaved DNA left (log2)” value was -0.0542.
For TAACAAG, the “uncleaved DNA left (log2)” value was -0.00218.
With GTGGCGG the “uncleaved DNA left (log2)” value was 0.0853.
GTGGTCG was tested, and the “uncleaved DNA left (log2)” value was 0.122.
AAATTGG was tested, and the “uncleaved DNA left (log2)” value was 0.0164.
In the case of TCTTTTT, the “uncleaved DNA left (log2)” value is reported as -0.0546.
AGCCGTG was tested, and the “uncleaved DNA left (log2)” value was -0.0227.
For GTCAGAT, the “uncleaved DNA left (log2)” value was 0.0881.
With TCCATGT the “uncleaved DNA left (log2)” value was -0.0685.
For CCTGGGG, the “uncleaved DNA left (log2)” value was 0.12.
In the case of AGGTTCT, the “uncleaved DNA left (log2)” value is reported as -0.00958.
For TGTTGTG, the “uncleaved DNA left (log2)” value was -0.0529.
For ATTAACT, the “uncleaved DNA left (log2)” value was 0.0515.
In the case of CTTGCGC, the “uncleaved DNA left (log2)” value is reported as -0.0861.
For CACGCCT, the “uncleaved DNA left (log2)” value was -0.22.
